In all, about 94,000 compounds went through this assay and about 6,200 (6.6%) were called active. The inconclusive results got no clear call from the source; some entries with a clear call stand among them for comparison. Calls come from the whole dose curve; as a rule, active = well fitted inhibition curve with a large enough effect; inconclusive = small, poorly fitted or top-dose-only effect; inactive = flat fitted curve, though single readings scatter. A potency beside an inconclusive call is a rough fit, not a confirmed value.
Test: Cytotoxic Profiling in HEK 293 Cell Line of Diverse Libraries Using Quantitative High-Throughput Screening; note: nearly all actives have a fitted effect of over 60% in size
Conditions: HEK 293 viability, ATP luminescence (CellTiter-Glo), 48-72 h; activity change, negative = cytotoxicity: at 115 µM (top of the series) unless noted; series mostly up to 115 µM
How it was run: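 HEK 293 cells seeded at 250 cells/well were exposed to compound for 48 or 72 hr at 37 degree Celsius. Viability taken as ATP content by CellTiter-Glo luminescence.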
% is set by controls: 0 for no effect and ±100 for the full control effect; potency is the fitted concentration of half-maximal effect; tags give direction and shape of the fitted curve.

Row | Compound | Potency | activity change, negative = cytotoxicity | outcome
1 | Cc1noc(-c2ccc(OC3CN(S(=O)(=O)c4cn(C)cn4)C3)cc2)n1 | inconclusive: 44.7 µM [inhibitor, partial curve, poor fit] | – | –
2 | CCOc1ccc(NC(=O)CCNc2c(C)nc3cnccn23)cc1 | inconclusive: 56.2 µM [inhibitor, partial curve, poor fit] | – | –
3 | O=S(=O)(Cc1ccccc1)NC[C@H]1Cn2cc(-c3ccccc3)nc2CO1 | inconclusive: 112 µM [inhibitor, single point] | – | –
4 | O=C(NC1CC(c2cc(=O)[nH]cn2)C1)c1ncc(F)cc1F (stereo not drawn) | inconclusive: 70.8 µM [inhibitor, partial curve, poor fit] | – | –
5 | O=C(c1ncn[nH]1)N1C[C@@H](COCC2CC2)[C@H](c2ccccn2)C1 | inconclusive: 89.1 µM [inhibitor, single point] | – | –
6 | Cc1ccccc1-c1nn(-c2ccc(F)cc2F)cc1CN1CCC(O)CC1 | – | inactive: 3.67% | –
7 | Cc1cc(C(=O)N2C[C@@H](CO)[C@H](c3nc(C4CC4)no3)C2)ccn1 | – | inactive: -22.2% | –
8 | COc1cc2c(cc1OC)C(CNC(=O)c1ccc(C)cc1)N(C(=O)NC(C)C)CC2 (stereo not drawn) | active: 39.8 µM | – | –
9 | CC(C)N1CC2CCC(C1)N2Cc1ccc(-c2ccccc2)cc1 | inconclusive: 56.2 µM [inhibitor, partial curve, poor fit] | – | –
10 | O=C(NCc1ccc(F)cc1)C1CCN(C(=O)c2ccc(-c3cncnc3)cc2)CC1 | – | inactive: -15.4% | –
11 | Cn1ncc2c(C(=O)N3CCOCC3)cc(-c3ccccc3)nc21 | – | inactive: -9.53% [at 172 µM] | –
12 | COC(=O)[C@@H]1Cc2ncn(Cc3ccc(Cl)cc3)c2CN1S(C)(=O)=O | inconclusive: 126 µM [inhibitor, single point] | – | –
13 | Cc1ccc(CNC(=O)C2CCN(C(=O)c3ncn4c3COC(c3ccccc3)C4)CC2)cc1 (stereo not drawn) | – | inactive: 8.22% | –
14 | CCN1C[C@@H]2C(C(=O)Nc3cccc(Cl)c3)=NO[C@@H]2C1 | inconclusive: 100 µM [inhibitor, partial curve, poor fit] | – | –
15 | O=C(c1csc(N2CCN(c3ccccc3)CC2)n1)N1CCCCCC1 | inconclusive: 44.7 µM [inhibitor, partial curve, poor fit] | – | –
16 | FC(F)Oc1ccccc1CN(CC1CCN(C2CCCC2)CC1)CC1CCCO1 (stereo not drawn) | inconclusive: 20 µM [inhibitor, full curve, poor fit] | – | –
17 | COc1ccccc1-c1cccc(CN2CCCC(C(=O)NCC(F)(F)F)C2)c1 (stereo not drawn) | active: 44.7 µM | – | –
18 | CC1Oc2ccc(NC(=O)C3CC3)cc2CN(Cc2cc(F)cc(F)c2)C1=O (stereo not drawn) | inconclusive: 89.1 µM [inhibitor, single point] | – | –
19 | COCCOC1CN(C2CCN(Cc3cccc(F)c3)CC2)C12CCCCC2 (stereo not drawn) | inconclusive: 56.2 µM [inhibitor, partial curve, poor fit] | – | –
20 | C[S+](=O)([O-])c1ccc(-c2cc(C(=O)N3CCC(C#N)CC3)nn3cccc23)cc1 | inconclusive: 89.1 µM [inhibitor, single point] | – | –
21 | Cn1cc(CN2C[C@@H](F)[C@@H](OCc3nc4ncccc4[nH]3)C2)c2ccccc21 | active: 89.1 µM | – | –
22 | C[C@@H](NC(=O)C1CCOCC1)c1onc(-c2cccnc2)c1C(=O)O | – | inactive: -0.689% [at 172 µM] | –
23 | COc1ccccc1-c1nc(C(=O)NCCc2ccc(Cl)cc2)n2ccccc12 | – | inactive: -22.2% | –

Row | Compound | Potency | activity change, negative = cytotoxicity | outcome
24 | Cc1cc(Cn2cc3c4c(cccc42)[C@H](CC(C)C)N[C@H](C(=O)NCc2cncn2C)C3)no1 | inconclusive: 89.1 µM [inhibitor, single point] | – | –
25 | COCCN1C(=O)[C@H]2CC[C@@H]1CN(c1ncnc3sc(C)c(C)c13)C2 | inconclusive: 56.2 µM [inhibitor, partial curve, poor fit] | – | –
26 | CC1=C[C@@H](CNC(=O)CC(C)(C)CC(=O)O)[C@H](C(C)C)C[C@H]1Cc1nc2ccc(F)cc2[nH]1 | – | inactive: -4.4% | –
27 | O=C1COc2ccc(OCc3ccc(F)cc3)nc2CN1CCOc1ccccc1 | inconclusive: 56.2 µM [inhibitor, full curve, poor fit] | – | –
28 | COc1ccccc1-c1ccc2c(n1)CN(CC(=O)N1CCCC1)C(=O)CO2 | – | inactive: -0.682% [at 172 µM] | –
29 | Fc1ccccc1CNC1(Cc2cc(COc3ccccc3)on2)COC1 | inconclusive: 100 µM [inhibitor, partial curve, poor fit] | – | –
30 | Cc1nn(-c2ccccc2)c2c1C(C1CC1)N(C1CCN([S+](=O)([O-])c3c(C)noc3C)C1)C2=O (stereo not drawn) | inconclusive: 79.4 µM [inhibitor, partial curve, poor fit] | – | –
31 | COc1ccc(-c2noc(CC3CCN(C(=O)Cc4ccsc4)CC3)n2)cc1 | active: 44.7 µM | – | –
32 | Fc1ccccc1-c1nnc([C@H]2CCN(C3CCOCC3)C2)o1 | – | – | inactive [at 172 µM]
33 | COc1ccccc1C(=O)NC1CCN(c2ccnc3ccnn23)CC1 | inconclusive: 79.4 µM [inhibitor, partial curve, poor fit] | – | –
34 | CCOC(=O)[C@@H]1[C@@H](O)C(=O)N(C)C12CCN(C(=O)OC)CC2 | inconclusive: 100 µM [inhibitor, single point] | – | –
35 | CCOc1ccccc1CN1CCCC2(Cc3ccccc3CNC2=O)C1 (stereo not drawn) | inconclusive: 56.2 µM [inhibitor, partial curve, poor fit] | – | –
36 | O=C(NC1CCCN(c2cc(-c3ccc(Cl)cc3)[nH]n2)C1)c1ccc2ncccc2c1 (stereo not drawn) | inconclusive: 39.8 µM [inhibitor, full curve, poor fit] | – | –
37 | Cc1ccc(OC2(C(=O)NC(C)c3cn4ncsc4n3)CCNCC2)cc1 (stereo not drawn) | – | inactive: -17.3% | –
38 | CCc1cccc2c(C(CC(=O)N3CCc4ccccc4C3)c3cccc4c3OCO4)c[nH]c12 (stereo not drawn) | inconclusive: 35.5 µM [inhibitor, full curve] | – | –
39 | COc1cccc(-c2noc(-c3ccc(N4CCCC(CO)C4)nc3)n2)c1OC (stereo not drawn) | inconclusive: 35.5 µM [inhibitor, partial curve, poor fit] | – | –
40 | COCCCNC(=O)c1cn2cc(-c3ccccc3)sc2n1 | inconclusive: 100 µM [inhibitor, partial curve] | – | –
41 | CCOc1cc(=O)n2c(c1C(=O)Nc1ccccc1Cl)CCCC2 | inconclusive: 89.1 µM [inhibitor, partial curve, poor fit] | – | –
42 | COc1ccc(CN2CC3(CCN(C(=O)Nc4cccc(C)c4)CC3)C2=O)cc1 | – | inactive: -26% | –
43 | CCCCCNC(=O)c1ccc(Cn2ccn3nc4c(c3c2=O)CCCC4)cc1 | inconclusive: 50.1 µM [inhibitor, partial curve, poor fit] | – | –
44 | Cc1noc(C)c1-c1cc2cc(CO)oc2c(-c2cccc(OC(C)C)c2)n1 | active: 89.1 µM | – | –
45 | COc1ccc2ccc(OCc3nc(C(=O)N(C)Cc4cc(C)no4)co3)cc2c1 | inconclusive: 50.1 µM [inhibitor, partial curve, poor fit] | – | –
46 | C[C@@H](NC(=O)C1=C[C@@H](NC(=O)Cc2cccs2)[C@@H](O)[C@H](O)C1)C(N)=O | – | – | inactive [at 172 µM]

Row | Compound | Potency | activity change, negative = cytotoxicity | outcome
47 | O=C(NCc1cccc(C(F)(F)F)c1)C1CCCN(c2ccnc3ccnn23)C1 (stereo not drawn) | active: 44.7 µM | – | –
48 | CCOC(=O)CN1C(=O)CCN(C(=O)NC2CCCC2)CC(OC)c2ccccc21 (stereo not drawn) | – | inactive: -18.3% [at 57.5 µM] | –
49 | O=[S+]([O-])(Nc1ccccc1)c1ccc2c(c1)OCCN(Cc1cocn1)C2 | inconclusive: 100 µM [inhibitor, partial curve] | – | –
50 | CCOc1ccccc1NC(=O)Nc1cccc(-c2ccc(N3CCOCC3)nn2)c1 | active: 25.1 µM | – | –
51 | O=C(CCCc1ccccc1)N1CCC(Cc2nc(C3CC3)n[nH]2)C1 (stereo not drawn) | – | inactive: -5.89% | –
52 | COC1CCC(C(=O)N2CCC3(CC2)OC(=O)N(Cc2ccccc2)C3(C)c2ccccc2)CC1 (stereo not drawn) | – | inactive: -13.6% | –
53 | COc1ccc(C(=O)N2CCN(C(=O)c3nc4cccnc4n(Cc4ccccc4)c3=O)CC2)cc1 | inconclusive: 89.1 µM [inhibitor, single point] | – | –
54 | COc1cccc(NC(=O)CN2C(=O)NC(c3ccc(C)cc3)C3=C2COC3=O)c1 (stereo not drawn) | inconclusive: 35.5 µM [inhibitor, partial curve] | – | –
55 | Cc1ccc(NC(=O)C2CCc3nnc(C4CC4)n32)cc1 (stereo not drawn) | – | inactive: -6.96% [at 172 µM] | –
56 | CCOc1ccc(-c2cc3c(=O)n(CCNC(=O)c4ccncc4)ccn3n2)cc1 | inconclusive: 89.1 µM [inhibitor, single point] | – | –
57 | COCCN(C)C[C@@H]1CN(C(=O)CC(F)(F)F)C[C@@H]1CO | – | inactive: -1.56% | –
58 | CC(=O)N1Cc2ccccc2CC2(CCN(Cc3ccc(C(F)(F)F)nc3)CC2)C1 | inconclusive: 63.1 µM [inhibitor, partial curve, poor fit] | – | –
59 | Cc1ccccc1Cn1cc(-c2ccncc2)cc1C(=O)O | inconclusive: 79.4 µM [inhibitor, single point] | – | –
60 | CCNC(=O)N1CCc2nc(OCC)ccc2C1 | – | inactive: 1.38% | –
61 | Fc1ccccc1-c1n[nH]c2c1CN(Cc1cccn1-c1nccs1)CC2 | inconclusive: 50.1 µM [inhibitor, partial curve, poor fit] | – | –
62 | COc1cccc(N2C(=O)NC(=NC3CCCCC3)C23CCN(C(=O)c2ccc(C)cc2)C3)c1 (stereo not drawn) | – | – | inactive
63 | COC(=O)CNC(=O)c1cc(-c2ccc([S+](C)(=O)[O-])cc2)c2cccn2n1 | – | – | inactive
64 | O=C(O)CCc1cc2n(n1)CCCN(C(=O)CN1CCOC1=O)C2 | – | inactive: -3.14% | –
65 | O=C(NCc1cccs1)c1ccc2nnc(-c3ccoc3)n2c1 | – | inactive: -1.6% | –
66 | O=c1[nH]c(C2CCN([S+](=O)([O-])c3cccc(C(F)(F)F)c3)CC2)nn1-c1ccc(Cl)cc1 | – | inactive: 0.866% | –
67 | c1ccc(C2=NOC3(CCCN(CC4CCCCC4)C3)C2)cc1 (stereo not drawn) | inconclusive: 112 µM [inhibitor, single point] | – | –
68 | Cc1c(-c2cc(C(=O)N3CCC(=O)N(CC4CC4)C(C(C)C)C3)no2)cnn1C (stereo not drawn) | – | inactive: 1.5% | –

— PubChem BioAssay AID1345083 (National Center for Advancing Translational Sciences (NCATS), 2018)
